# Measured values published in patent US20250250314A1 (XILIO DEVELOPMENT, published 2025).
# T1: Biotinylated recombinant human CD122 (human, UniProt P14784 27-239, biotinylated)
# T1 sequence (looked up): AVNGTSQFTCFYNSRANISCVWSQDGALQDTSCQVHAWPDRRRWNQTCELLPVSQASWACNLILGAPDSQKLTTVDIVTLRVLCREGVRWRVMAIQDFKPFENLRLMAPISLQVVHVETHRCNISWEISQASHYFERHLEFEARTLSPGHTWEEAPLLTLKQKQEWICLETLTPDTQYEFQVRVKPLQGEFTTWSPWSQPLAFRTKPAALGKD
# T2: Biotinylated recombinant human CD25 (human, UniProt P01589 22-213, limits assumed, biotinylated)
# T2 construct: also called IL-2Rα
# T2 sequence (looked up): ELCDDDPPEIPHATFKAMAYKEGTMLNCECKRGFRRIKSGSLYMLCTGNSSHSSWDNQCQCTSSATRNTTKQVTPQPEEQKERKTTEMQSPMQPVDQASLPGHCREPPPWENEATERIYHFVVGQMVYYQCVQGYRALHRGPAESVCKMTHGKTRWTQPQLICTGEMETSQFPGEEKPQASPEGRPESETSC
# Tests used:
# [1] = target: PD-1 from the PD-1 effector cells (UniProt Q15116 25-288, limits assumed); experiment: cell-based or functional assay
# [2] = target: T1, Biotinylated recombinant human CD122; experiment: SPR, Biacore T200, biotinylated CD122 captured on Biotin CAPture chip, steady-state affinity analysis
# [3] = target: T2, Biotinylated recombinant human CD25; experiment: SPR, Biacore T200, biotinylated CD25 captured on Biotin CAPture chip, steady-state affinity analysis, 25 C
# [4] = target: T2, Biotinylated recombinant human CD25; experiment: SPR, steady-state affinity, reference rhIL-2
# Chain of UniProt Q15116 (Q15116 25-288 limits assumed): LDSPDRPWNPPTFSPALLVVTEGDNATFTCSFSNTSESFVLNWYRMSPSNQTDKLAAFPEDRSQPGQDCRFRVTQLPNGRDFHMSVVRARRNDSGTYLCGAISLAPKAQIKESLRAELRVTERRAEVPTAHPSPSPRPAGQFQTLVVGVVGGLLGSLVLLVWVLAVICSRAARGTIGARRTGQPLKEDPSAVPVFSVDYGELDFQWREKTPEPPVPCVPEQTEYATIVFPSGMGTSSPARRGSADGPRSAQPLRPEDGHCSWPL
"EC50 (nM), fold induction of luminescence in the PD-1/PD-L1 Blockade Bioassay [1] [nM]",Kd [3] [nM],fold reduced affinity compared to rhIL-2 [4] [fold],Binder,binding result [2]
1.76,,,UCM9 (other) heavy 1: QVQLVQSGVEVKKPGASVKVSCKASGYTFTNYYMYWVRQAPGQGLEWMGGINPSNGGTNFNEKFKNRVTLTTDSSTTTAYMELKSLQFDDTAVYYCARRDYRFDMGFDYWGQGTTVTVSSASTKGPSVFPLAPSSKSTSGGTAALGCLVKDYFPEPVTVSWNSGALTSGVHTFPAVLQSSGLYSLSSVVTVPSSSLGTQTYICNVNHKPSNTKVDKKVEPKSCDKTHTCPPCPAPELLGGPSVFLFPPKPKDTLMISRTPEVTCVVVDVSHEDPEVKFNWYVDGVEVHNAKTKPREEQYASTYRVVSVLTVLHQDWLNGKEYKCKVSNKALPAPIEKTISKAKGQPREPQVYTLPPCRDELTKNQVSLWCLVKGFYPSDIAVEWESNGQPENNYKTTPPVLDSDGSFFLYSKLTVDKSRWQQGNVFSCSVMHEALHNRFTQKSLSLSPGGGSSPPGGGSSGGGSGP[left out - about 150 residues] heavy 2: QVQLVQSGVEVKKPGASVKVSCKASGYTFTNYYMYWVRQAPGQGLEWMGGINPSNGGTNFNEKFKNRVTLTTDSSTTTAYMELKSLQFDDTAVYYCARRDYRFDMGFDYWGQGTTVTVSSASTKGPSVFPLAPSSKSTSGGTAALGCLVKDYFPEPVTVSWNSGALTSGVHTFPAVLQSSGLYSLSSVVTVPSSSLGTQTYICNVNHKPSNTKVDKKVEPKSCDKTHTCPPCPAPELLGGPSVFLFPPKPKDTLMISRTPEVTCVVVDVSHEDPEVKFNWYVDGVEVHNAKTKPREEQYASTYRVVSVLTVLHQDWLNGKEYKCKVSNKALPAPIEKTISKAKGQPREPQVCTLPPSRDELTKNQVSLSCAVKGFYPSDIAVEWESNGQPENNYKTTPPVLDSDGSFFLVSKLTVDKSRWQQGNVFSCSVMHEALHNHYTQKSLSLPLGLGGSSGSGGSGGGSGSGGGEVQLVESGGGLVQPGGSLRLSCAASGSIFSINVMGWYRQAPGKGRELVAAISSGGSTNYADSVKGRFTISRDNAKNTVYLQMNSLKPEDTAVYYCAYASSYYEDETDYWGQGTQVTVSS light: EIVLTQSPATLSLSPGERATLSCRASKGVSTSGYSYLHWYQQKPGQAPRLLIYLASYLESGVPARFSGSGSGTDFTLTISSLEPEDFAVYYCQHSRDLPLTFGGGTKVEIKRTVAAPSVFIFPPSDEQLKSGTASVVCLLNNFYPREAKVQWKVDNALQSGNSQESVTEQDSKDSTYSLSSTLTLSKADYEKHKVYACEVTHQGLSSPVTKSFNRGEC,
0.78,,,Control UCM3 (other) heavy 1: QVQLVQSGVEVKKPGASVKVSCKASGYTFTNYYMYWVRQAPGQGLEWMGGINPSNGGTNFNEKFKNRVTLTTDSSTTTAYMELKSLQFDDTAVYYCARRDYRFDMGFDYWGQGTTVTVSSASTKGPSVFPLAPSSKSTSGGTAALGCLVKDYFPEPVTVSWNSGALTSGVHTFPAVLQSSGLYSLSSVVTVPSSSLGTQTYICNVNHKPSNTKVDKKVEPKSCDKTHTCPPCPAPELLGGPSVFLFPPKPKDTLMISRTPEVTCVVVDVSHEDPEVKFNWYVDGVEVHNAKTKPREEQYASTYRVVSVLTVLHQDWLNGKEYKCKVSNKALPAPIEKTISKAKGQPREPQVYTLPPCRDELTKNQVSLWCLVKGFYPSDIAVEWESNGQPENNYKTTPPVLDSDGSFFLYSKLTVDKSRWQQGNVFSCSVMHEALHNRFTQKSLSLSPGGGSSPPGGGSSGGGSGPAPTSSSTKKTQLQLEHLLLDLQMILNGINNYKNPKLTAMLTAKFAMPKKATELKHLQCLEEALKPLEEVLNLAQSKNFHLRPRDLISNINVIVLELKGSETTFMCEYADETATIVEFLNRWITFAQSIISTLT heavy 2: QVQLVQSGVEVKKPGASVKVSCKASGYTFTNYYMYWVRQAPGQGLEWMGGINPSNGGTNFNEKFKNRVTLTTDSSTTTAYMELKSLQFDDTAVYYCARRDYRFDMGFDYWGQGTTVTVSSASTKGPSVFPLAPSSKSTSGGTAALGCLVKDYFPEPVTVSWNSGALTSGVHTFPAVLQSSGLYSLSSVVTVPSSSLGTQTYICNVNHKPSNTKVDKKV[left out - human IgG1 Fc with changes] light: EIVLTQSPATLSLSPGERATLSCRASKGVSTSGYSYLHWYQQKPGQAPRLLIYLASYLESGVPARFSGSGSGTDFTLTISSLEPEDFAVYYCQHSRDLPLTFGGGTKVEIKRTVAAPSVFIFPPSDEQLKSGTASVVCLLNNFYPREAKVQWKVDNALQSGNSQESVTEQDSKDSTYSLSSTLTLSKADYEKHKVYACEVTHQGLSSPVTKSFNRGEC,
,2920,236,"UCM12 (other, Masked, PD-1-targeted attenuated IL-2 (F42E, C125A); GGPLGL cleavable Fc) heavy 1: QVQLVQSGVEVKKPGASVKVSCKASGYTFTNYYMYWVRQAPGQGLEWMGGINPSNGGTNFNEKFKNRVTLTTDSSTTTAYMELKSLQFDDTAVYYCARRDYRFDMGFDYWGQGTTVTVSSASTKGPSVFPLAPSSKSTSGGTAALGCLVKDYFPEPVTVSWNSGALTSGVHTFPAVLQSSGLYSLSSVVTVPSSSLGTQTYICNVNHKPSNTKVDKKVEPKSCDKTHTCPPCPAPELLGGPSVFLFPPKPKDTLMISRTPEVTCVVVDVSHEDPEVKFNWYVDGVEVHNAKTKPREEQYASTYRVVSVLTVLHQDWLNGKEYKCKVSNKALPAPIEKTISKAKGQPREPQVYTLPPCRDELTKNQVSLWCLVKGFYPSDIAVEWESNGQPENNYKTTPPVLDSDGSFFLYSKLTVDKSRWQQGNVFSCSVMHEALHNRFTQKSLSLSPGGGSSPPGGGSSGGGSGP[left out - about 150 residues] heavy 2: QVQLVQSGVEVKKPGASVKVSCKASGYTFTNYYMYWVRQAPGQGLEWMGGINPSNGGTNFNEKFKNRVTLTTDSSTTTAYMELKSLQFDDTAVYYCARRDYRFDMGFDYWGQGTTVTVSSASTKGPSVFPLAPSSKSTSGGTAALGCLVKDYFPEPVTVSWNSGALTSGVHTFPAVLQSSGLYSLSSVVTVPSSSLGTQTYICNVNHKPSNTKVDKKVEPKSCDKTHTCPPCPAPELLGGPSVFLFPPKPKDTLMISRTPEVTCVVVDVSHEDPEVKFNWYVDGVEVHNAKTKPREEQYASTYRVVSVLTVLHQDWLNGKEYKCKVSNKALPAPIEKTISKAKGQPREPQVCTLPPSRDELTKNQVSLSCAVKGFYPSDIAVEWESNGQPENNYKTTPPVLDSDGSFFLVSKLTVDKSRWQQGNVFSCSVMHEALHNHYTQKSLGGPLGLGGSSGSGGSGGGSGSGGGEVQLVESGGGLVQPGGSLRLSCAASGSIFSINVMGWYRQAPGKQRELVAAISSGGSTNYADSVKGRFTISRDNAKNTVYLQMNSLKPEDTAVYYCMYASSWYEDETDYWGQGTQVTVSSAAA light: EIVLTQSPATLSLSPGERATLSCRASKGVSTSGYSYLHWYQQKPGQAPRLLIYLASYLESGVPARFSGSGSGTDFTLTISSLEPEDFAVYYCQHSRDLPLTFGGGTKVEIKRTVAAPSVFIFPPSDEQLKSGTASVVCLLNNFYPREAKVQWKVDNALQSGNSQESVTEQDSKDSTYSLSSTLTLSKADYEKHKVYACEVTHQGLSSPVTKSFNRGEC","no binding (tested: 18.52 to 13,500 nM test article)"
1.6,,,UCM11 (other) heavy 1: QVQLVQSGVEVKKPGASVKVSCKASGYTFTNYYMYWVRQAPGQGLEWMGGINPSNGGTNFNEKFKNRVTLTTDSSTTTAYMELKSLQFDDTAVYYCARRDYRFDMGFDYWGQGTTVTVSSASTKGPSVFPLAPSSKSTSGGTAALGCLVKDYFPEPVTVSWNSGALTSGVHTFPAVLQSSGLYSLSSVVTVPSSSLGTQTYICNVNHKPSNTKVDKKVEPKSCDKTHTCPPCPAPELLGGPSVFLFPPKPKDTLMISRTPEVTCVVVDVSHEDPEVKFNWYVDGVEVHNAKTKPREEQYASTYRVVSVLTVLHQDWLNGKEYKCKVSNKALPAPIEKTISKAKGQPREPQVYTLPPCRDELTKNQVSLWCLVKGFYPSDIAVEWESNGQPENNYKTTPPVLDSDGSFFLYSKLTVDKSRWQQGNVFSCSVMHEALHNRFTQKSLSLSPGGGSSPPGGGSSGGGSGP[left out - about 150 residues] heavy 2: QVQLVQSGVEVKKPGASVKVSCKASGYTFTNYYMYWVRQAPGQGLEWMGGINPSNGGTNFNEKFKNRVTLTTDSSTTTAYMELKSLQFDDTAVYYCARRDYRFDMGFDYWGQGTTVTVSSASTKGPSVFPLAPSSKSTSGGTAALGCLVKDYFPEPVTVSWNSGALTSGVHTFPAVLQSSGLYSLSSVVTVPSSSLGTQTYICNVNHKPSNTKVDKKVEPKSCDKTHTCPPCPAPELLGGPSVFLFPPKPKDTLMISRTPEVTCVVVDVSHEDPEVKFNWYVDGVEVHNAKTKPREEQYASTYRVVSVLTVLHQDWLNGKEYKCKVSNKALPAPIEKTISKAKGQPREPQVCTLPPSRDELTKNQVSLSCAVKGFYPSDIAVEWESNGQPENNYKTTPPVLDSDGSFFLVSKLTVDKSRWQQGNVFSCSVMHEALHNHYTQKSLGGPLGLGGSSGSGGSGGGSGSGGGEVQLVESGGGLVQPGGSLRLSCAASGSIFSINVMGWYRQAPGKQRELVAAISSGGSTNYADSVKGRFTISRDNAKNTVYLQMNSLKPEDTAVYYCMYASSWYEDETDYWGQGTQVTVSS light: EIVLTQSPATLSLSPGERATLSCRASKGVSTSGYSYLHWYQQKPGQAPRLLIYLASYLESGVPARFSGSGSGTDFTLTISSLEPEDFAVYYCQHSRDLPLTFGGGTKVEIKRTVAAPSVFIFPPSDEQLKSGTASVVCLLNNFYPREAKVQWKVDNALQSGNSQESVTEQDSKDSTYSLSSTLTLSKADYEKHKVYACEVTHQGLSSPVTKSFNRGEC,
